Experiment [1] deals with T1, Murine CD86-mIgG (R&D Systems, Inc) (murine, UniProt P42082 24-244, limits assumed).
T1 construct: also called muCD86
T1 sequence (looked up): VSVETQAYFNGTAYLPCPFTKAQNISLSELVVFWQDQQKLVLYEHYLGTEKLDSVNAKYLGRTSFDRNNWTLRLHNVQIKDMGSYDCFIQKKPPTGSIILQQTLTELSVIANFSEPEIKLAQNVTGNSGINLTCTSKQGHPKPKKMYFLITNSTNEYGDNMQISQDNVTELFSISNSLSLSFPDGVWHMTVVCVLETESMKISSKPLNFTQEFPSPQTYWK
The experiment is described as follows: SPR (BIAcore T100), murine CD86-mIgG immobilized on CM5; bivalent analyte model, first site. How it is done:
(§1) SPR measurements were performed on a BIAcore™ T100 SPR (Pharmacia Biotech AB, Uppsala) using HBS-EP+ (GE Healthcare) as a running buffer. Murine CD86-mIgG (25 μg/mL in 10 mM sodium acetate, pH 4.0, R&D Systems, Inc) was directly immobilized onto a CM5 chip using standard amine coupling chemistry (Biacore Amine Coupling Kit, GE Healthcare), with final immobilization levels of 150, 493, and 746 Ru. CTLA4-containing constructs were injected for 150 seconds, at a flow rate of 10 μl/min, in a series of concentrations from 4 nM to 8 μM. Dissociation was monitored for 600 seconds (CTLA4 constructs) or 1200 seconds (GL1 constructs), and the surface was regenerated by injecting 10 mM glycine, pH 1.7, for 60 seconds. […] Data were analyzed using BiaEvaluation for the T100 software (version 2.0.1, GE Healthcare).
(In general: In SPR one partner is held on a chip, and binding of the other changes the refractive index at the surface.)

Experiment [2] deals with T1, Murine CD86-mIgG (R&D Systems, Inc). The experiment is described as follows: SPR (BIAcore T100), murine CD86-mIgG immobilized on CM5; bivalent analyte model, second site. How it is done: as §1
The target is the same in experiment [3]. The experiment can be described thus: SPR (BIAcore T100), murine CD86-mIgG immobilized on CM5; steady-state equilibrium, multiple Rmax fit. How it is done: as §1
Experiment [4] has as its target T2, CD86 on cells (WIL2-S human B-lymphoblastoid cells; HuCD86-2A2 CHO cells expressing CD86) (human, UniProt P42081 24-329).
T2 construct: whole, on cells; also called cell surface CD86
T2 sequence (looked up): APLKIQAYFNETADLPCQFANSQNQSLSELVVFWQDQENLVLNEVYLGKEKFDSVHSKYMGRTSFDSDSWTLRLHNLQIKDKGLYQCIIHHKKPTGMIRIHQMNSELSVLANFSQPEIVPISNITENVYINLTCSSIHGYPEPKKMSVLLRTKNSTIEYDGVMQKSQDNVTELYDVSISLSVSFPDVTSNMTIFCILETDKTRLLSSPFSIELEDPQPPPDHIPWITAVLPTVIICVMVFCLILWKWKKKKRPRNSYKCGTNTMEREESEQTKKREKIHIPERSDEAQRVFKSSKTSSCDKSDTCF
The experiment can be described thus: flow cytometry on HuCD86-2A2 CHO cells with IL10R1-muIg. How it is done: Briefly, WIL2-S or HuCD86-2A2 cells were incubated with test molecules containing a CD86 antagonist at concentrations ranging from saturation to background levels. […] After the incubation, cells were washed and a fluorophore (R-phycoerythrin) tagged F(Ab′)₂ antibody specific for the Fc portion of the xceptor molecule, IL10R-Ig fusion protein, or anti-IL10 antibody. The tagged cells were then passed through a flow cytometer and data was analyzed by plotting median fluorescence intensity of each sample.

B1: muCTLA4-Ig (murine CTLA4 fusion to human Fc domain) (Fc fusion)
chain: [about 120 residues not spelt out]EPRVPITQNPCPPLKECPPCAAPDAAGAPSVFIFPPKIKDVLMISLSPMVTCVVVDVSEDDPDVQISWFVNNVEVHTAQTQTHREDYNSTLRVVSALPIQHQDWMSGKAFACAVNNRALPSPIEKTISKPRGPVRAPQVYVLPPPAEEMTKKEFSLTCMIAGFLPAEIAVDWTSNGRTEQNYKNTATVLDSDGSYFMYSKLRVQKSTWERGSLFACSVVHEGLHNHLTTKTISRSLGK
In experiment [1], B1 showed a koff of 0.0386 s⁻¹ and a kon of 27800 M⁻¹ s⁻¹. In experiment [2], the “Second Site ka” value was found to be 0.000659 s⁻¹ and the “Second Site kd” value was determined as 0.00311 s⁻¹. In experiment [3], this molecule yielded a Kd of 2250 nM.

B2: CTLA4::IL10 I87A xceptor (Fc fusion)
chain: [about 120 residues not spelt out]EPKSSDKTHTCPPCPAPEAAGAPSVFLFPPKPKDTLMISRTPEVTCVVVDVSHEDPEVKFNWYVDGVEVHNAKTKPREEQYNSTYRVVSVLTVLHQDWLNGKAYACAVSNKALPAPIEKTISKAKGQPREPQVYTLPPSRDELTKNQVSLTCLVKGFYPSDIAVEWESNGQPENNYKTTPPVLDSDGSFFLYSKLTVDKSRWQQGNVFSCSVMHEALHNHYTQKSLSLSPGNSLFNQEVQIPLTESYSPNSSPGQGTQSENSCTHFPGNLPNMLRDLRDAFSRVKTFFQMKDQLDNLLLKESLLEDFKGYLGCQALSEMIQFYLEEVMPQAENQDPDAKAHVNSLGENLKTLRLRLRRCHRFLPCENKSKAVEQVKNAFNKLQEKGIYKAMSEFDIFINYIEAYMTMKIRN
notes: also called CTLA4::IL10187A
Consider B2, for which the binding result in experiment [4] is “binds”.

B3: CTLA4::IL10 I87S xceptor (Fc fusion)
chain: [about 120 residues not spelt out]EPKSSDKTHTCPPCPAPEAAGAPSVFLFPPKPKDTLMISRTPEVTCVVVDVSHEDPEVKFNWYVDGVEVHNAKTKPREEQYNSTYRVVSVLTVLHQDWLNGKAYACAVSNKALPAPIEKTISKAKGQPREPQVYTLPPSRDELTKNQVSLTCLVKGFYPSDIAVEWESNGQPENNYKTTPPVLDSDGSFFLYSKLTVDKSRWQQGNVFSCSVMHEALHNHYTQKSLSLSPGNSLFNQEVQIPLTESYSPNSSPGQGTQSENSCTHFPGNLPNMLRDLRDAFSRVKTFFQMKDQLDNLLLKESLLEDFKGYLGCQALSEMIQFYLEEVMPQAENQDPDSKAHVNSLGENLKTLRLRLRRCHRFLPCENKSKAVEQVKNAFNKLQEKGIYKAMSEFDIFINYIEAYMTMKIRN
notes: also called CTLA4::IL10187S
B3: the binding result in experiment [4] is “binds”.

B4: CTLA4::monoIL10 xceptor (Fc fusion)
chain: [about 120 residues not spelt out]EPKSSDKTHTCPPCPAPEAAGAPSVFLFPPKPKDTLMISRTPEVTCVVVDVSHEDPEVKFNWYVDGVEVHNAKTKPREEQYNSTYRVVSVLTVLHQDWLNGKAYACAVSNKALPAPIEKTISKAKGQPREPQVYTLPPSRDELTKNQVSLTCLVKGFYPSDIAVEWESNGQPENNYKTTPPVLDSDGSFFLYSKLTVDKSRWQQGNVFSCSVMHEALHNHYTQKSLSLSPGNSLFNQEVQIPLTESYSPNSSPGQGTQSENSCTHFPGNLPNMLRDLRDAFSRVKTFFQMKDQLDNLLLKESLLEDFKGYLGCQALSEMIQFYLEEVMPQAENQDPDIKAHVNSLGENLKTLRLRLRRCHRFLPCENGGGSGGKSKAVEQVKNAFNKLQEKGIYKAMSEFDIFINYIEAYMTMKIRN
As for B4, the binding result in experiment [4] is “binds”.

In general, koff refers to a measure of how fast the partners let go of each other. The term kon denotes a measure of how fast the partners come together. Read a high kon as fast association. As a reminder, the Kd is the equilibrium constant for the complex coming apart. Higher therefore signals a looser complex.

For the origin of these results see US20120100139A1 (APTEVO RESEARCH AND DEVELOPMENT, published 2012).
